Screen size: about 39,000 compounds; about 220 (0.56%) showed activity. The list shows a part of the results.
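Further: static incubation at 37 °C against the wild-type strain, values averaged over two biological replicates.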

The test system of the test is Escherichia coli K-12 BW25113. Description: relative growth (OD600 normalised to plate interquartile mean) (fraction); higher = less growth inhibition, active = 0.2 or less. The conditions noted are these: 50 µM; LB; incubation time: overnight (16-24 h).
With `COCC#Cc1cnc2c(c1)C(=O)N([C@@H](C)CO)C[C@H](C)[C@H](CN(C)S(=O)(=O)c1cccc(OC)c1)O2`, the relative growth was inactive: 0.998.

`Cc1c[nH]c2ccccc12`: the relative growth is inactive: 0.939.

With `O=C([C@H]1CCCO1)N1CCNCC1`, the relative growth is inactive: 1.04.

Take `COc1cccc(S(=O)(=O)N[C@@H]2CC[C@@H](CCn3cc(-c4ccccc4OC)nn3)O[C@@H]2CO)c1`: the relative growth is inactive: 0.985.

On to `COCCN[C@H]1CS(=O)(=O)C[C@@H]1O`, for which the relative growth was inactive: 0.988.

Take `CC(C)NC(=O)N(C)C[C@@H]1OCCCC[C@@H](C)Oc2ccc(NC(=O)Nc3ccc(F)cc3)cc2C(=O)N([C@H](C)CO)C[C@H]1C`: the relative growth is inactive: 0.987.

Take `C[C@@H]1CCCCO[C@H](CN(C)C(=O)CCC(F)(F)F)[C@H](C)CN([C@H](C)CO)C(=O)c2cc(NC(=O)NC3CCCCC3)ccc2O1`: the relative growth is inactive: 0.989.

In the case of `CC(=O)NS(=O)(=O)c1ccc(NC(=O)c2ccccc2C(=O)O)cc1`, the relative growth is inactive: 0.877.

Consider `C[C@@H]1CN([C@@H](C)CO)C(=O)Cc2cc(NC(=O)Nc3ccc(F)cc3)ccc2O[C@@H]1CN(C)Cc1ccc(C(=O)Nc2ccccc2N)cc1`, for which the relative growth is inactive: 1.01.

Turning to `C[C@@H]1CN([C@H](C)CO)C(=O)c2cc(NC(=O)Cc3cn(C)c4ccccc34)ccc2O[C@H]1CN(C)C(=O)Nc1cccc2ccccc12`, the relative growth was inactive: 1.04.

`Cc1ccc(S(=O)(=O)Nc2ccc3c(c2)C(=O)N([C@H](C)CO)C[C@H](C)[C@H](CN(C)S(C)(=O)=O)OCCCC[C@H](C)O3)cc1`: the relative growth was inactive: 1.

Consider `C[C@H](CO)N1C[C@H](C)[C@H](CN(C)Cc2ccc(Cl)c(Cl)c2)Oc2c(NS(=O)(=O)c3ccc(F)cc3)cccc2C1=O`, for which the relative growth was inactive: 1.04.

For `O=c1cc(-c2ccc(O)cc2)oc2ccc(O)cc12`, the relative growth is inactive: 1.01.

For `C[C@@H]1CN([C@@H](C)CO)C(=O)c2cccc(NS(C)(=O)=O)c2O[C@@H]1CN(C)S(=O)(=O)c1cn(C)cn1`, the relative growth was inactive: 0.997.

`C[C@H]1CN([C@@H](C)CO)C(=O)Cc2cc(NC(=O)Cn3cnnn3)ccc2O[C@@H]1CN(C)C(=O)Nc1ccccc1`: the relative growth is inactive: 1.

For `COc1ccc(S(=O)(=O)N(C)C[C@@H]2Oc3ccc(NS(C)(=O)=O)cc3CC(=O)N([C@H](C)CO)C[C@@H]2C)cc1`, the relative growth was inactive: 0.987.

Turning to `COc1ccc(S(=O)(=O)N[C@H]2CC[C@H](CC(=O)N3CCC(Cc4ccccc4)CC3)O[C@H]2CO)cc1`, the relative growth is inactive: 0.996.

For the compound `C[C@@H]1CCCCO[C@@H](CN(C)Cc2ccc(C(F)(F)F)cc2)[C@H](C)CN([C@H](C)CO)C(=O)c2cc(NC(=O)Nc3ccc4c(c3)OCO4)ccc2O1`, the relative growth is inactive: 1.05.

On to `C[C@@H]1CCCCO[C@H](CN(C)Cc2ccc(C(F)(F)F)cc2)[C@@H](C)CN([C@H](C)CO)C(=O)c2cc(N(C)C)ccc2O1`, for which the relative growth was inactive: 0.944.

Take `C[C@H](CO)N1C[C@H](C)[C@H](CN(C)S(C)(=O)=O)Oc2ccc(NS(C)(=O)=O)cc2CC1=O`: the relative growth is inactive: 0.982.

As for `C[C@H]1CN([C@@H](C)CO)C(=O)Cc2cc(NC(=O)CCCCCC(=O)Nc3ccccc3N)ccc2O[C@@H]1CN(C)C(=O)Nc1ccc(C(F)(F)F)cc1`, the relative growth is inactive: 1.01.

As to `COc1cccc(S(=O)(=O)N(C)C[C@@H]2Oc3cc(C4=CCCC4)ccc3S(=O)(=O)N([C@H](C)CO)C[C@@H]2C)c1`, the relative growth is inactive: 1.03.

Take `CO[C@H]1CN(C)C(=O)c2cc(NS(C)(=O)=O)ccc2OC[C@@H](C)N(C(=O)C2CCOCC2)C[C@H]1C`: the relative growth is inactive: 1.

With `CC(=O)N(C)C[C@H]1Oc2ncc(C#C[C@H](C)O)cc2C(=O)N([C@@H](C)CO)C[C@H]1C`, the relative growth is inactive: 1.04.

Regarding `C[C@H](CO)N1C[C@H](C)[C@H](CN(C)C(=O)C2CCCCC2)Oc2cc(-c3cncnc3)ccc2S1(=O)=O`, the relative growth is inactive: 1.03.

As for `C=CC[C@@H](CC(=O)N[C@@H](CO)Cc1ccccc1)C(=O)N[C@@H](C)COC(=O)[C@@H](CC=C)CC(=O)OC(C)(C)C`, the relative growth was inactive: 0.993.

As for `C[C@@H]1CN([C@H](C)CO)C(=O)c2cccc(NS(=O)(=O)c3ccc(F)cc3)c2O[C@@H]1CN(C)CC1CC1`, the relative growth was inactive: 1.

Take `COc1ccccc1C(=O)Nc1ccc2c(c1)C(=O)N(C)[C@@H]1CC[C@@H](CC(=O)NCc3ccc(Cl)c(Cl)c3)O[C@@H]1CO2`: the relative growth was inactive: 1.05.

On to `C[C@H](CO)N1C[C@H](C)[C@H](CN(C)C(=O)NC2CCCCC2)OCCCC[C@H](C)Oc2ccc(NC(=O)CCC(F)(F)F)cc2C1=O`, for which the relative growth is inactive: 0.98.

As for `Cc1ccc(S(=O)(=O)N2C[C@@H](O)COC[C@@H]3O[C@@H](CC(=O)N[C@H]4CCN(Cc5ccccc5)C4)CC[C@H]32)cc1`, the relative growth was inactive: 0.963.

For `COC[C@H]1CNN1C(=O)C1CCCC1`, the relative growth was inactive: 0.986.

Turning to `COc1ccccc1S(=O)(=O)N(C)C[C@@H]1OCc2cnnn2CCCC(=O)N([C@@H](C)CO)C[C@H]1C`, the relative growth is inactive: 0.981.

In the case of `COc1ccc(CN(C)C[C@@H]2OCCCC[C@@H](C)Oc3ccc(NS(=O)(=O)c4c(C)noc4C)cc3C(=O)N([C@H](C)CO)C[C@@H]2C)cc1`, the relative growth is inactive: 0.875.

For the compound `C[C@H]1CN([C@@H](C)CO)C(=O)c2cccc(NC(=O)Nc3cccc4ccccc34)c2O[C@@H]1CN(C)C(=O)Nc1cccc2ccccc12`, the relative growth is inactive: 1.01.

Turning to `CN(C)c1nc2cc(Cl)ccc2o1`, the relative growth was inactive: 0.978.

As to `COc1ccc(S(=O)(=O)N(C)C[C@H]2Oc3cc(C4=CCCC4)ccc3S(=O)(=O)N([C@H](C)CO)C[C@@H]2C)cc1`, the relative growth was inactive: 0.975.

For `CC(C)(C)[S@@](=O)N1Cc2cc(C(=O)NCc3ccccn3)nc(-c3cccc(-c4ccccc4F)c3)c2[C@H]1CCO`, the relative growth was inactive: 1.01.

Consider `COc1ccc(S(=O)(=O)N(C)C[C@@H]2Oc3ccc(NC(=O)Cc4ccccc4)cc3CC(=O)N([C@@H](C)CO)C[C@H]2C)cc1`, for which the relative growth is inactive: 0.978.

As to `Cc1noc(C)c1NC(=O)Nc1cccc2c1O[C@H](CN(C)C(=O)Nc1cccc3ccccc13)[C@@H](C)CN([C@H](C)CO)C2=O`, the relative growth was inactive: 0.969.

(Values after the supplement of paper PMC9446081.)
